Assay results published in PubChem BioAssay (NCATS).
“And” between values parts separate entries of the source, which are not always exact repeats. Equal entries are not always repeated. This list was built around the results that the source calls inconclusive (neither active nor inactive); the mix of calls is not that of the screen. For some assays here: Potencies of inconclusive entries are doubtful fits and often do not repeat. Some structures have more than one record in an assay (separate samples or runs), and their calls can disagree. The source made the active and inactive calls. Calls follow the shape of the dose curve; as a rule, active = well fitted curve in the direction sought with a large enough effect; inconclusive = small, poorly fitted or top-dose-only effect, or another doubt; inactive = no such curve, though single readings can be large; an effect the other way counts as inactive or inconclusive.

Legend:
[1] = Primary qHTS for inhibitors of nuclear receptor binding SET domain protein 2 (NSD2) in an RCH-ACV wild type WT cells (2C) (AID 1645877); conditions: RCH-ACV (leukaemia line) NSD2 WT (2C) viability, CellTiter-Glo, 72 h; series mostly up to 44.9 µM; also: nearly all actives have a fitted effect of over 70% in size; also: potency is read from the fitted curve at half-maximal effect
[2] = molecular target: Luciferin 4-monooxygenase (Photinus pyralis) (UniProt P08659); experiment: Primary firefly luciferase (FLuc) qHTS assay for identification of artifact compounds. (AID 1845220); conditions: purified firefly luciferase, luminescence, 5 min; series mostly up to 54.1 µM; also: potency is read from the fitted curve at half-maximal effect; nearly all actives have a fitted effect of over 60% in size
Outline: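 Enzymatic FLuc inhibition assay: compounds pre-exposed to luciferin/ATP (10 uM each) for 15 min, then purified P. pyralis enzyme at 10 nM added. Read-out: luminescence at 5 min.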

[3] = molecular target: Rap guanine nucleotide exchange factor 3 (Homo sapiens) (UniProt O95398); experiment: Confirmatory qHTS for antagonist of cAMP-regulated guanine nucleotide exchange factor 3 (EPAC1) (AID 1645880); conditions: EPAC1 Rap1B-BODIPY-GDP exchange, fluorescence; series mostly up to 115 µM; also: potency is read from the fitted curve at half-maximal effect; nearly all actives have a fitted effect of over 55% in size
Outline: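 Nucleotide exchange uses 100 nM EPAC1, 250 nM RAP1B-BODIPY-GDP and 50 uM GDP, with compounds in a concentration-titration series. After 5 min at room temperature, fluorescence (480 nm ex/540 nm em) is read every 5 min for 30 min. Data are normalized to control ATA and DMSO.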

[4] = molecular target: Rap guanine nucleotide exchange factor 4 (Homo sapiens) (UniProt Q8WZA2); experiment: Confirmatory qHTS for agonist of cAMP-regulated guanine nucleotide exchange factor 4 (EPAC2) (AID 1645884); conditions: EPAC2 GEF activity, Rap1B-BODIPY-GDP fluorescence;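 also: nucleotide exchange releases bodipy-GDP from Rap1 and this lowers its fluorescence; potency is read from the fitted curve at half-maximal effect; nearly all actives have a fitted effect of over 65% in size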
[5] = molecular target: Rap guanine nucleotide exchange factor 4 (Homo sapiens) (UniProt Q8WZA2); experiment: Confirmatory qHTS for antagonist of cAMP-regulated guanine nucleotide exchange factor 4 (EPAC2) (AID 1645885); conditions: EPAC2 Rap1B-BODIPY-GDP exchange fluorescence, biochemical; series mostly up to 114 µM; also: potency is read from the fitted curve at half-maximal effect; nearly all actives have a fitted effect of over 25% in size
[6] = Viability counterscreen for antagonist of constitutive androstane receptor (CAR) against the NCATS DSHEA and TCM libraries (AID 1794837); conditions: CAR reporter cell line viability counterscreen, qHTS;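 also: potency is read from the fitted curve at half-maximal effect; compound exposure lasted 24 h before viability reading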
Outline: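 Cell viability, CellTiter-Fluor, Ex/Em 405/540 nm, 1 h at 37C. HepG2-CYP2B6-hCAR, 2,500 cells/well; cpds + CITCO 48 uM final (antagonist mode), 24 h, 37C/5% CO2.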

[7] = molecular target: Metallo-beta-lactamase type 2 (Klebsiella pneumoniae) (UniProt C7C422); experiment: qHTS to identify inhibitors of the New Delhi Metallo-beta-lactamase (NDM): assay validation screen against the NCATS LOPAC Collection (AID 1794843); conditions: NDM-1 enzyme, nitrocefin hydrolysis, absorbance 485 nm; series mostly up to 38.4 µM;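 also: nitrocefin turnover by NDM-1 measured as 485 nm absorbance at plateau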
Outline: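 Nitrocefin hydrolysis (50 uM substrate stock) by NDM-1, 2 nM final, was followed by 485 nm absorbance after compound preincubation; buffer was 50 mM HEPES pH 7.0, 1 uM ZnSO4, 0.01% Tween20.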

[8] = molecular target: Glutathione peroxidase 1 (Homo sapiens) (UniProt P07203); experiment: Primary qHTS Assay for Inhibitors of Recombinant Selenoprotein Glutathione Peroxidase 1 (GPX1) (AID 1845191); conditions: recombinant GPX1, GR-coupled NADPH fluorescence, 15 min; series mostly up to 48.8 µM; also: potency is read from the fitted curve at half-maximal effect; nearly all actives have a fitted effect of over 65% in size
Outline: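 GR-coupled assay: compounds preincubated 30 min at room temperature with GPX1, then reaction started with CHP; final 10 nM GPX1, 1 mM GSH, 0.5 mM CHP, 0.5 mM NADPH, 100 nM GR, 0.01% BSA, pH 7.5 Tris buffer. NADPH fluorescence (340/450 nm) read at 0 and 15 min.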

[9] = molecular target: Phospholipid hydroperoxide glutathione peroxidase GPX4 (Homo sapiens) (UniProt P36969); experiment: Primary qHTS Assay for Inhibitors of Recombinant Selenoprotein Glutathione Peroxidase 4 (GPX4) (AID 1845192); conditions: recombinant GPX4, GR-coupled NADPH fluorescence, 15 min; series mostly up to 50 µM; also: potency is read from the fitted curve at half-maximal effect; nearly all actives have a fitted effect of over 65% in size
Outline: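 GR-coupled assay: recombinant GPX4 preincubated 30 min with compound at room temperature; final 200 nM GPX4, 1 mM GSH, 0.5 mM cumene hydroperoxide, 0.5 mM NADPH, 100 nM GR, 0.01% BSA, pH 7.5 Tris. NADPH fluorescence (340/450 nm) read at 0 and 15 min.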

[10] = molecular target: Rap guanine nucleotide exchange factor 3 (Homo sapiens) (UniProt O95398); experiment: Confirmatory qHTS for agonist of cAMP-regulated guanine nucleotide exchange factor 3 (EPAC1) (AID 1645881); conditions: EPAC1 Rap1B BODIPY-GDP exchange fluorescence; series mostly up to 154 µM;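 also: EPAC1 catalysed release of BODIPY-GDP from Rap1B seen as fluorescence loss; nearly all actives have a fitted effect of over 75% in size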
[11] = molecular target: Rap guanine nucleotide exchange factor 3 (Homo sapiens) (UniProt O95398); experiment: Counterscreen qHTS for agonist of cAMP-regulated guanine nucleotide exchange factor 3 (EPAC1) (AID 1645889); conditions: EPAC1 Rap1B-BODIPY-GDP exchange, fluorescence; series mostly up to 154 µM; also: potency is read from the fitted curve at half-maximal effect; nearly all actives have a fitted effect of over 40% in size
Outline: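 Rap1B–BODIPY-GDP (250 nM) with 50 uM GDP; compounds pin-transferred to 9.74 nM–152 uM final (activator) or from 7.32 nM upwards (inhibitor). Fluorescence Ex/Em 480/540 nm read at 5 and 30 min, then after adding cAMP or buffer, at room temperature.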

[12] = NCATS anti-infectives library activity on HEK293 viability as a counter-qHTS vs the C. elegans viability qHTS (AID 1745854); conditions: HEK293 viability counter-screen; series mostly up to 41.8 µM; also: potency is read from the fitted curve at half-maximal effect
Outline: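 HEK293 cells, 1500 per well, exposed 24 hr at 37C in 5% CO2 to compounds in a 1:5 titration, up to 41.7 uM final. Viability read as CellTiter-Glo luminescence after 10 min at room temperature.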

[13] = molecular target: Nuclear receptor subfamily 1 group I member 3 (Homo sapiens) (UniProt Q14994); experiment: Primary qHTS for agonist of constitutive androstane receptor (CAR) against the NCATS DSHEA and TCM libraries (AID 1794839); conditions: CAR agonist reporter cells, qHTS luminescence; CAR antagonist co-added at 0.75 µM; also: potency is read from the fitted curve at half-maximal effect
Outline: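 Luminescence from ONE-Glo luciferase was the agonist read-out in HepG2-CYP2B6-hCAR cells exposed 24 h to test substances. Wells also held the CAR antagonist PK11195 at 0.75 µM final. Viability was by CellTiter-Fluor fluorescence.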

[14] = HepG2 viability counterscreen (readout 1: protease activity) against the NCATS DSHEA and TCM libraries (AID 1794841); conditions: qHTS concentration series;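 also: potency is read from the fitted curve at half-maximal effect; cells exposed to compounds for about 24 h before the protease read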
Outline: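 1,000 HepG2 cells/well, 4 h attach; compounds ~24 h, 37C/5% CO2. Readout 1: GF-AFC 25 uM final, 30 min, fluorescence 380/510 nm. Readout 2: CellTiter-Glo, 30 min RT, luminescence.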
Tags tell the direction and shape of the fitted curve.

UniProt O95398, sequence (O95398 whole entry, looked up): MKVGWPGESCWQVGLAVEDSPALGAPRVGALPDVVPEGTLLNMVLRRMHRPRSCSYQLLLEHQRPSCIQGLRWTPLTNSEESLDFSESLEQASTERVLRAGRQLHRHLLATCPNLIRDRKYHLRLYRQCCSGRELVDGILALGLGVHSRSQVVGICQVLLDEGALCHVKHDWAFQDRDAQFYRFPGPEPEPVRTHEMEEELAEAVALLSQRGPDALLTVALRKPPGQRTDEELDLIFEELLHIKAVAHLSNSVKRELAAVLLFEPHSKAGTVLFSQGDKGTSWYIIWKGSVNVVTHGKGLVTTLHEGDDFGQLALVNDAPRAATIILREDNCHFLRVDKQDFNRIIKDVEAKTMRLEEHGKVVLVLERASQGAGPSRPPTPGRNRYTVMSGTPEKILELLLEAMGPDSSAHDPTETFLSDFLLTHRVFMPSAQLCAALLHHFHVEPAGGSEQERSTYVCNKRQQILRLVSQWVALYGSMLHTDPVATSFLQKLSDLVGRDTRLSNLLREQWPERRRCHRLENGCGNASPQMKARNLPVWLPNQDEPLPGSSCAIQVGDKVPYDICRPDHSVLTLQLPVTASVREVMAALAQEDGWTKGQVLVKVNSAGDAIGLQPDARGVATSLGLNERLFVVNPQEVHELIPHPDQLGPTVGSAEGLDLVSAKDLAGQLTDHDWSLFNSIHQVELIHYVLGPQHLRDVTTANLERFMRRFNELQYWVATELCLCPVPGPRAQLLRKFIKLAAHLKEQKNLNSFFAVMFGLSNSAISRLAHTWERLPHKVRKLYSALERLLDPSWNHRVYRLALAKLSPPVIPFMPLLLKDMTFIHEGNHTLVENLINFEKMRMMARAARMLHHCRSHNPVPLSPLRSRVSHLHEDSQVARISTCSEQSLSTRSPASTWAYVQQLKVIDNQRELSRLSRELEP
UniProt Q8WZA2, sequence (Q8WZA2 whole entry, looked up): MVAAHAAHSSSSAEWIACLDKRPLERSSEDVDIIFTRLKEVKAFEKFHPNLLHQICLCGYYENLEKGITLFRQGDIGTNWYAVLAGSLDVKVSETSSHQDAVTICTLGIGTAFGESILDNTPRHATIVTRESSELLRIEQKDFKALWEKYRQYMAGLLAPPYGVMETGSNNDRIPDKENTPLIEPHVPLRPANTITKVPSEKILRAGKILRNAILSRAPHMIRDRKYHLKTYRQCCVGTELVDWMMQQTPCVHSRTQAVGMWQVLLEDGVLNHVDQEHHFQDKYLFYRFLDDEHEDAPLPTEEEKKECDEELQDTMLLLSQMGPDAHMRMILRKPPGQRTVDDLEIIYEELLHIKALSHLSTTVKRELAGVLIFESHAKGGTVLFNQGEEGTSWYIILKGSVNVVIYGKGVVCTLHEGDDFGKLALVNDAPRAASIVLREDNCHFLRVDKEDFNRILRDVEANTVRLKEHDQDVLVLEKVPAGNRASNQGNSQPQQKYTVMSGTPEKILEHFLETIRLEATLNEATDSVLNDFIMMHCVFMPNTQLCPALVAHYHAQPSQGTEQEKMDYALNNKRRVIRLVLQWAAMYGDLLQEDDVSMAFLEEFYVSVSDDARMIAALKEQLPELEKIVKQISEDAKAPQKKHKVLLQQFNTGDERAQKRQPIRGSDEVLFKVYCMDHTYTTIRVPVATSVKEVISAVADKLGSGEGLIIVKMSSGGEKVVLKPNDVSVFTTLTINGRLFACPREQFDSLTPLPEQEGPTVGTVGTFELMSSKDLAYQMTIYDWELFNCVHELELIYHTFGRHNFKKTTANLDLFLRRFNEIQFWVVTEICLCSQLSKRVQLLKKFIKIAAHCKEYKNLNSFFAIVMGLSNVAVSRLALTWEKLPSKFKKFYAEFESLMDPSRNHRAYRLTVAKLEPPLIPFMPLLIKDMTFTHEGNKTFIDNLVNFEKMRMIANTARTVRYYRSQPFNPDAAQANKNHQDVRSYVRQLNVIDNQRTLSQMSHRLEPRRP
UniProt P36969, sequence (P36969 whole entry, looked up): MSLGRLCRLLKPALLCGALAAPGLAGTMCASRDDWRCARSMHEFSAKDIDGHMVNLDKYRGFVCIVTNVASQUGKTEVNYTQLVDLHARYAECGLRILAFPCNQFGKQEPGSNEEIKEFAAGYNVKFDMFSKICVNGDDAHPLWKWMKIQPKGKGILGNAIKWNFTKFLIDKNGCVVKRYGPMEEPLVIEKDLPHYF
UniProt C7C422, sequence (C7C422 whole entry, looked up): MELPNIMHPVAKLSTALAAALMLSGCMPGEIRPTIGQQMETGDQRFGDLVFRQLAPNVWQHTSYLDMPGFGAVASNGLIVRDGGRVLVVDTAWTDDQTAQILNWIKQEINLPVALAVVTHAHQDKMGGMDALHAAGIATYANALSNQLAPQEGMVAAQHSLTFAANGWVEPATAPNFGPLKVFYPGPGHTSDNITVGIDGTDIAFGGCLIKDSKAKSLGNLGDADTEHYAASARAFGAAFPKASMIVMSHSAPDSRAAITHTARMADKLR
UniProt Q14994, sequence (Q14994 whole entry, looked up): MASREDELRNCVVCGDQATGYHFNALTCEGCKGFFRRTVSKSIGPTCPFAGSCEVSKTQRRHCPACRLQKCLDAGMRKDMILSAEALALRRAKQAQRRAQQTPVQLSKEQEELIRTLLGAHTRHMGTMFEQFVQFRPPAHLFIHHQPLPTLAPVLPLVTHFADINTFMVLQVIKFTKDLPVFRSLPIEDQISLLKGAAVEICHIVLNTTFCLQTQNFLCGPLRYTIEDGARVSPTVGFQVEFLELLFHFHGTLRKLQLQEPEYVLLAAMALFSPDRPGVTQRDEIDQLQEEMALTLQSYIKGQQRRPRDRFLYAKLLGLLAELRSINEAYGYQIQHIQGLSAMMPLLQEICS
UniProt P07203, sequence (P07203 whole entry, looked up): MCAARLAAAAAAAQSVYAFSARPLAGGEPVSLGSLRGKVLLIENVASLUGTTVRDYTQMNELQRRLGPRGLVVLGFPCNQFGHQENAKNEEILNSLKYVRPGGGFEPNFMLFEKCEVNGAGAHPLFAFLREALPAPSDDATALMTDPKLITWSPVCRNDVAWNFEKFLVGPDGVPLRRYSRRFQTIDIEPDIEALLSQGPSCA

For `CCCCCCCCCCCCCCCCCC(=O)O`, the Potency [1] was “inactive”.

For `O=C(O)c1ccccc1C(=O)Nc1ccc(-c2ccccc2)cc1`, the Potency [1] was “inactive” and the Potency [2] was active: 23.9 µM.

For `O=c1c(O)c(-c2ccc(O)c(O)c2)oc2cc(O)cc(O)c12`, the Potency [1] was inconclusive: 11.9 µM [inhibitor, partial curve, poor fit], the Potency [3] was inconclusive: 9.93 µM [inhibitor, partial curve] and inconclusive: 6.01 µM [inhibitor, full curve] and the Potency [4] was inconclusive: 112 µM [activator, single point]. The Potency [5] was inconclusive: 49.4 µM [inhibitor, partial curve] and active: 75.7 µM, the Potency [6] was inconclusive: 31.6 µM [cytotoxic, single point] and the Potency [7] was “inactive”.

In the case of `O=C(Nc1ccc(OC(F)(F)F)cc1)c1sccc1NCc1ccnc2ccccc12`, the Potency [1] is reported as inconclusive: 29.1 µM [inhibitor, single point], the Potency [8] is reported as inconclusive: 32.1 µM [inhibitor, single point] and the Potency [2] is reported as inconclusive: 26.9 µM [inhibitor, single point].

For `CC(C)(C)Cn1c(N)nc2ccc(-c3[nH]c(C(C)(C)C)nc3-c3ccc(F)cc3)nc21`, the Potency [1] was active: 2.58 µM and active: 16.6 µM and the Potency [9] was active: 9.04 µM.

With `CNCC(O)c1ccc(O)c(O)c1` (stereo not given) the Potency [1] was inconclusive: 4.73 µM [inhibitor, partial curve, poor fit].

In the case of `O=C1C[C@@H](c2ccc(O)cc2)Oc2cc(O)cc(O)c21`, the Potency [1] is reported as inconclusive: 18.6 µM [inhibitor, partial curve].

For `COc1cc2c(Oc3ccc(NC(=O)C4(C(=O)Nc5ccc(F)cc5)CC4)cc3F)ccnc2cc1OCCCN1CCOCC1`, the Potency [1] was active: 365 nM and active: 833 nM.

With `CCc1ccc(OCc2ccccc2C(=O)Nc2ccc3nc(C)cc(N)c3c2)cc1` the Potency [1] was active: 2.95 µM and the Potency [9] was inconclusive: 25.5 µM [inhibitor, partial curve, poor fit].

With `CC(=O)NCCc1c[nH]c2ccc(O)cc12` the Potency [1] was inconclusive: 32.6 µM [inhibitor, partial curve, poor fit].

In the case of `O=C(Nc1ccccc1-c1cn2c(CN3CCNCC3)csc2n1)c1cnc2ccccc2n1`, the Potency [1] is reported as active: 4.09 µM and active: 6.61 µM and the Potency [2] is reported as inconclusive: 33.8 µM [inhibitor, partial curve].

In the case of `C[N+](C)(C)CC(=O)O`, the Potency [1] is reported as “inactive”.

In the case of `COCCOC(=O)C1=C(C)NC(C)=C(C(=O)OC/C=C/c2ccccc2)C1c1cccc([N+](=O)[O-])c1` (stereo not given), the Potency [3] is reported as inconclusive: 35.2 µM [inhibitor, partial curve, poor fit], the Potency [10] is reported as “inactive” and the Potency [5] is reported as inconclusive: 31.2 µM [inhibitor, partial curve]. For the same compound, the Potency [7] was “inactive”.

In the case of `CC(C)c1ccc2c(c1)c(SC(C)(C)C)c(CC(C)(C)C(=O)O)n2Cc1ccc(Cl)cc1`, the Potency [10] is reported as “inactive”.

With `Cn1cc(C2=C(c3ccc(Cl)cc3Cl)C(=O)NC2=O)c2ccccc21` the Potency [4] was inconclusive: 10 µM [activator, partial curve, poor fit] and the Potency [11] was inconclusive: 14.1 µM [activator, single point].

With `O=C1C(SCCO)=C(SCCO)C(=O)c2ccccc21` the Potency [11] was inconclusive: 14.1 µM [activator, partial curve].

In the case of `O=C(CCCN1CCC(O)(c2ccc(Cl)cc2)CC1)c1ccc(F)cc1`, the Potency [12] is reported as “inactive”.

With `COc1cccc2c1CCCC2CCCN1CCN(C2CCCCC2)CC1` (stereo not given) the Potency [12] was inconclusive: 11.2 µM [cytotoxic, single point].

For `O=c1c(-c2ccc(O)cc2)coc2cc(O[C@@H]3O[C@H](CO)[C@H](O)[C@H](O)[C@H]3O)ccc12`, the Potency [13] was active: 10 µM.

In the case of `O=C(O)/C=C/c1ccc(O)c(O)c1`, the Potency [14] is reported as inconclusive: 7.08 µM [inhibitor, full curve, poor fit].
